# According to the supplement of paper PMC8813932:
# Counter-ions that a name gives are not always drawn. ± gives the standard deviation of the averaged measurements. The list shows a part of the results. Single values are uncertain, as repeats are few or missing.
# How the values were obtained:
# Assay in all cases: log2 surviving fraction relative to plate median (drug vs vehicle, or drug+dl922-947 vs dl922-947 alone); ovarian cancer lines: OVCAR4 is platinum-sensitive while Ov4Cis resists cisplatin and Ov4Carbo carboplatin; higher = more cell survival
# Settings in all cases: compound concentration: 10 uM, 192 h
# OVCAR4 = tested on: OVCAR4
# Ov4Carbo = tested on: Ov4Carbo
# Ov4Cis = tested on: Ov4Cis
# [1] = dl922-947 oncolytic adenovirus co-treatment: MOI 10
# [2] = dl922-947 oncolytic adenovirus co-treatment: none
Structure (SMILES),log2 surviving fraction (OVCAR4; [1]),log2 surviving fraction (OVCAR4; [2]),log2 surviving fraction (Ov4Carbo; [1]),log2 surviving fraction (Ov4Carbo; [2]),log2 surviving fraction (Ov4Cis; [1]),log2 surviving fraction (Ov4Cis; [2])
O=C(O)Cc1ccccc1Nc1c(Cl)cccc1Cl [Diclofenac Potassium],1.35 ± 0.021,1.29 ± 0.76,2.1,1.35,0.747,0.0698
O=c1[nH]c(=O)n([C@H]2C[C@H](O)[C@@H](CO)O2)cc1F [Floxuridine],-1.54 ± 1.8,-2.47 ± 0.84,-0.936,-6.53,-0.275,-0.468
CCc1ccc(CCOc2ccc(CC3SC(=O)NC3=O)cc2)nc1 (stereo not drawn) [Pioglitazone hydrochloride (Actos)],-1.11 ± 0.024,-0.284 ± 0.81,-1.63,0.136,-0.202,-1.07
CC(=O)OCC(=O)[C@@]12N=C(C)O[C@@H]1C[C@H]1[C@@H]3CCC4=CC(=O)C=C[C@]4(C)[C@H]3[C@@H](O)C[C@@]12C [Deflazacort (Calcort)],0.973 ± 0.26,-0.142 ± 0.23,0.838,0.0229,1.5,-1.66
C=C1/C(=C\C=C2/CCC[C@]3(C)[C@@H]([C@H](C)CCCC(C)(C)O)CC[C@@H]23)C[C@@H](O)C[C@@H]1O [Calcitriol (Rocaltrol)],-0.552 ± 1,-2.19 ± 0.22,-1.42,-3.67,-1.3,-1.47
NCC[C@H](O)C(=O)N[C@@H]1C[C@H](N)[C@@H](O[C@H]2O[C@H](CN)[C@@H](O)[C@H](O)[C@H]2O)[C@H](O)[C@H]1O[C@H]1O[C@H](CO)[C@@H](O)[C@H](N)[C@H]1O [Amikacin hydrate],0.463 ± 0.82,0.381 ± 0.41,1.19,0.231,0.457,-0.529
Nc1ncnc2c1ncn2[C@@H]1O[C@H](CO)[C@@H](O)[C@H]1O [Adenosine (Adenocard)],0.639 ± 1.3,1.44 ± 1.2,1.83,1.2,0.673,1.62
CNCCC(Oc1ccc(C(F)(F)F)cc1)c1ccccc1 (stereo not drawn) [Fluoxetine  HCl],-3.25 ± 2.3,-1.38 ± 0.14,-5.94,-3.23,-4.99,-2.21
O=C(O)CCCN1CCC(O[C@@H](c2ccc(Cl)cc2)c2ccccn2)CC1 [Bepotastine Besilate],0.0852 ± 0.52,0.775 ± 0.55,0.908,1.64,0.0558,-1.93
N#C[C@@H]1CCCN1C(=O)CNC12CC3CC(CC(O)(C3)C1)C2 [Vildagliptin (LAF-237)],-0.7 ± 0.49,0.792 ± 0.51,0.0765,1.49,-0.082,-0.935
NS(=O)(=O)Cc1noc2ccccc12 [Zonisamide],1.4 ± 0.39,0.3 ± 0.39,0.341,1.1,0.118,1.32
CCOC(=O)OC(C)OC1=C(C(=O)Nc2ccccn2)N(C)S(=O)(=O)c2ccccc21 (stereo not drawn) [Ampiroxicam],0.242 ± 0.017,0.727 ± 0.44,-0.381,-0.445,0.522,0.463
CN1C2CCC1CC(OC(=O)C(O)c1ccccc1)C2 (stereo not drawn) [Homatropine Bromide],0.608 ± 0.19,1.2 ± 1.3,-0.551,2,-0.0158,0.625
CN(C)CCC(c1ccc(Cl)cc1)c1ccccn1 (stereo not drawn) [Chlorpheniramine Maleate],-0.453 ± 0.62,0.211 ± 0.19,-0.141,0.0195,0.232,0.327
N=C(N)N [Guanidine HCl],-0.837 ± 0.83,-0.627 ± 0.34,-0.205,0.348,-1.16,-2.41
c1ccc2c(CC3=NCCN3)cccc2c1 [Naphazoline hydrochloride (Naphcon)],0.02 ± 0.038,0.147 ± 0.13,-0.894,-0.316,0.137,-0.31
CCCCCCCCCCCCCCCC(=O)O[C@@H]1[C@@H](O)[C@@H](O)[C@@H]([C@H](NC(=O)[C@@H]2C[C@@H](CCC)CN2C)[C@H](C)Cl)O[C@@H]1SC [Clindamycin palmitate HCl],-0.595 ± 0.025,-0.035 ± 0.23,-1.22,-0.476,-0.903,0.187
CCOC(=O)[C@H](CCc1ccccc1)N[C@H]1CS[C@H](c2cccs2)CN(CC(=O)O)C1=O [Temocapril HCl],0.0679 ± 0.31,0.426 ± 0.17,0.325,-0.61,0.0537,0.0834
CC[C@H]1OC(=O)[C@H](C)[C@@H](O[C@H]2C[C@@](C)(OC)[C@@H](O)[C@H](C)O2)[C@H](C)[C@@H](O[C@@H]2O[C@H](C)C[C@H](N(C)C)[C@H]2O)[C@](C)(O)C[C@@H](C)CN(C)[C@H](C)[C@@H](O)[C@]1(C)O [Azithromycin (Zithromax)],-0.0862 ± 1.2,0.0687 ± 0.1,0.427,-1.17,0.0377,0.293
C[C@]12CC[C@H](O)C[C@H]1CC[C@@H]1[C@@H]2C[C@@H](O)[C@]2(C)[C@@H](C3=CC(=O)OC3)CC[C@]12O [Digoxigenin],-9.37 ± 0.23,-11.2 ± 6.6,-8.51,-11.7,-8.47,-12.1
[O-][n+]1cccc(CO)c1 [Mepiroxol],0.471 ± 0.41,0.152 ± 0.21,1.01,-0.0621,0.708,0.072
Cc1cc(O)ccc1Cl [Chlorocresol],-0.202 ± 0.42,0.0685 ± 1.3,-0.562,-0.24,0.19,-0.491
CNC(=C[N+](=O)[O-])NCCSCc1ccc(CN(C)C)o1 [Ranitidine (Zantac)],1.17 ± 0.55,0.456 ± 0.95,0.562,0.506,0.358,0.428
